This assay concerns NCI-H322M lung. Nature of the assay: inhibition of tumour cell growth, NCI panel, 48 h.

The structures appear in SMILES notation.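 All cell lines were grown in 96-well plates and treated with compound for 48 hours. Abbreviation: GI50, concentration required for 50% inhibition of growth. The concentration for full growth arrest is given as TGI.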 Some results are limits rather than exact numbers.

As for `CCN=C1C=CC(=C(c2ccc(N(CC)CC)cc2)c2ccc(N(CC)CC)cc2)c2ccccc21`, the GI50 was 0.24 µM and the TGI stood at 1.19 µM.
On the same counts, the results for `Cn1cc(-c2ccc3nnc(Sc4ccc5ncccc5c4)n3n2)cn1` are more than 100 µM and more than 100 µM.
Regarding `Nc1nc(Cl)cc(NC23CC4CC(CC(C4)C2)C3)n1`, the TGI is more than 100 µM.
Still for that read-out and setting: with `N#Cc1cc2c(n(C3OC(CO)C(O)C(O)C3O)c1=S)CCCCCC2` (stereo not given) the figure was more than 100 µM; with `C=C(C)CC1(O[Si](C)(C)C)C(=O)C(OCC)=C1OCC` (stereo not given), more than 100 µM.
Still for that read-out and setting: under `C=CCC1C(O[Si](C)(C)C(C)(C)C)C(CO[Si](C)(C)C(C)(C)C)OC1n1ccc(=O)[nH]c1=O` (stereo not given) stands 3.04 µM.
With `NCCOCCOCCNc1nc(-c2ccc(Cl)cc2)nc(N2CCN(c3ccccn3)CC2)n1`, the GI50 is 3.55 µM and the TGI was found to be 13.2 µM.
Molecule `NN=C(CC(O)(C(F)(F)Cl)C(F)(F)Cl)CC(O)(C(F)(F)Cl)C(F)(F)Cl` had a TGI of more than 10 µM.
Still for that read-out and setting: under `CCOP(=O)(OCC)/C(=C/c1cccs1)CC(C)=O` stands more than 100 µM; under `COc1ccc(/C(Cl)=C/c2cc(OC)ccc2OC)cc1`, more than 100 µM; under `C=C=C(CC(CC(=C)Br)(C(=O)OC)C(=O)OC)S(=O)(=O)c1ccccc1`, 26.9 µM.
The same measure, in the same setting: under `C/C(=N\Nc1nc2cc(C(F)(F)F)ccc2s1)c1ccccn1` stands 16.3 µM.
Consider `Cc1cc(O)c(C2=NN(c3ccc(S(N)(=O)=O)cc3)C(c3ccc(Cl)cc3)C2)c(C)c1Cl` (stereo not given), for which the GI50 is 5.01 µM and the TGI turned out to be 20.2 µM.
In turn, `Cc1nc(N)c(N2CCN(CN)CC2)c(=O)[nH]1` yielded a TGI of more than 100 µM.
As for `O=c1ncccn1C1OC(CO)C(O)C1O` (stereo not given), the TGI is more than 100 µM.
In turn, `CC(Oc1ccccc1Cl)C(=O)NN1C(=O)CSC1c1ccccc1` (stereo not given) showed a TGI of more than 100 µM.
The same measure, in the same setting: with `C=C(C)[C@H]1C2=CC(C)=C(O2)[C@@H](O[C@@H]2c3oc(cc3C)[C@H](C(=C)C)[C@H]3C=C(CC[C@H]2C(=C)C)C(=O)O3)[C@H](C(=C)C)CCC2=C[C@H]1OC2=O` the figure was more than 100 µM.
The same measure, in the same setting: under `Cc1cc(N(CCC#N)CCC#N)ccc1N=Nc1ccc(Br)cc1` stands more than 100 µM; under `Cc1cc(C)c2c(c1)C(=O)/C(=C/c1ccccc1C(=O)O)C2`, more than 100 µM; under `CCOC(=O)CCn1ncc(Cl)c(Cl)c1=O`, 27.1 µM.
Still for that read-out and setting: with `CCOP(=O)(O)CN1CCNCCN(CP(=O)(O)OCC)CCNCC1` the figure was more than 100 µM; with `O=C(CCN1CCN2c3ccccc3CCC2C1)c1ccc(F)cc1` (stereo not given), more than 100 µM; with `O=c1oc(C(C(F)(F)F)C(F)(F)F)nc2ccccc12`, more than 100 µM.
`CC(C)(C)C(=CS(=O)/N=C/c1ccccc1)C(C)(C)C` (stereo not given) registered a TGI of more than 100 µM.
Still for that read-out and setting: under `C/C(=N\Nc1nc2ccccc2n1C)c1cc2ccccc2cn1` stands 12.4 µM; under `CC(C)(C)OC(=O)NCC(CNC(=O)OC(C)(C)C)c1nc(C(N)=O)cs1`, more than 100 µM.
On to `COc1ccc(-c2nc(-c3nc4ccc(F)cc4[nH]3)c3ccccn23)cc1`, for which the GI50 was 9.53 µM and the TGI is more than 100 µM.
Regarding `CN(C)/N=N/c1nc2c(c(=O)n(C)c(=O)n2C)n1CC(O)CO` (stereo not given), the TGI was more than 100 µM.
On to `CCCCCC[C@H](C)Nc1nc2ccccc2c2occc12`, for which the GI50 was 12.6 µM and the TGI amounted to 27.4 µM.
For the molecule `CCOC(=O)Nn1c(CC#N)nnc1Cc1ccccc1`, the TGI is more than 100 µM.
The same measure, in the same setting: with `NCC(O)CSCc1ccc(Cl)cc1` (stereo not given) the figure was more than 100 µM.
On the same count and under the same terms, with `CC(=O)Nc1ccc(OC/C(N)=N/NC(=O)c2ccncc2)cc1` the figure was more than 100 µM; with `CCc1cc2c(c3c1CCCC3=O)CC1(Cc3ccc(C(=O)OC)cc3C1)C2` (stereo not given), more than 100 µM.
For `COc1ccc(C(O)c2cc3c(N)c(C(=O)Nc4cccc(Cl)c4)sc3nc2C)cc1` (stereo not given), the GI50 was 2.18 µM and the TGI was more than 64.6 µM.
With `Cc1ccc(S(=O)(=O)Nc2nnc(S(N)(=O)=O)s2)cc1`, the TGI was more than 100 µM.
`CN1CC2=C(NC(=S)NC2c2ccccc2)/C(=C/c2ccccc2)C1` (stereo not given) had a TGI of more than 100 µM.
The same measure, in the same setting: under `CCCCCCCCCCCCCCCCCCNc1nc(=O)n(C2CC(O)C(COP(=O)(O)O)O2)cc1F` (stereo not given) stands more than 100 µM.
The same measure, in the same setting: under `O=[N+]([O-])c1cccc(N=Nc2c(O)c(S(=O)(=O)O)cc3cc(S(=O)(=O)O)ccc23)c1` stands more than 100 µM.
`C=CC(=O)Nc1cc(N2CCN(CC)CC2)ccc1Nc1cc(N(C)C(=O)Nc2c(Cl)c(OC)cc(OC)c2Cl)ncn1`: the GI50 is 12.7 µM and the TGI stood at 26.4 µM.
For the molecule `COC[C@@H](N=Cc1ccc([N+](=O)[O-])cc1)C(C)C`, the TGI was more than 100 µM.
As to `COc1cnc2c(c1)C(=O)c1c-2n(CCCNCCO)c(=O)c2ccncc12`, the GI50 is 1.87 µM and the TGI was found to be 24.8 µM.

Source of the values: PubChem BioAssay (NCI).
